Among all 290,000 compounds or so, about 1,100 (0.38%) were called active. This list was built around the results that the source calls inconclusive (neither active nor inactive); the mix of calls is not that of the screen. Calls follow the shape of the dose curve; as a rule, active = well fitted inhibition curve with a large enough effect; inconclusive = small, poorly fitted or top-dose-only effect, or another doubt; inactive = no such curve, though single readings can be large or run the other way. A potency beside an inconclusive call is a rough fit, not a confirmed value.
biological target: Pyruvate kinase (Leishmania mexicana) (UniProt Q27686); assay: qHTS Assay for Inhibitors of Leishmania Mexicana Pyruvate Kinase (LmPK); conditions: purified LmPK, Kinase-Glo ATP luminescence, 1 h; series mostly up to 57.5 µM
Procedure, shortened: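 Purified LmPK (0.1 nM) with 0.5 mM PEP and 0.1 mM ADP in imidazole buffer pH 7.2 with MgCl2/KCl, 1 h at room temperature. ATP formed was read by luciferase luminescence and normalized to no-enzyme and uninhibited controls.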
Potency is read from the fitted curve at half-maximal effect; tags tell the direction and shape of the fitted curve.

Sequence of UniProt Q27686 (Q27686 whole entry, looked up): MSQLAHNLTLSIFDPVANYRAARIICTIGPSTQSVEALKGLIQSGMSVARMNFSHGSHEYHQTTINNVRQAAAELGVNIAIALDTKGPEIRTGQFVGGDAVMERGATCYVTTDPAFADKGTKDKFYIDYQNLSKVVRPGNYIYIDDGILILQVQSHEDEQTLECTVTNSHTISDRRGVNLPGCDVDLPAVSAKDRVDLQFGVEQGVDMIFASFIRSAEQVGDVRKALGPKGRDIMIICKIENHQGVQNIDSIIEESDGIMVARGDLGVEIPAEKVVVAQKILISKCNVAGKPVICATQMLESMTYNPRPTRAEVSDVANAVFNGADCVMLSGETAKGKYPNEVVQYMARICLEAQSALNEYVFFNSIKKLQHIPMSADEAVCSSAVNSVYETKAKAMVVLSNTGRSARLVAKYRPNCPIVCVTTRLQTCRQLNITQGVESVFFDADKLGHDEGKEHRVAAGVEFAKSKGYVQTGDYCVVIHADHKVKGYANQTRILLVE

Row | SMILES | Potency
1 | CC(O)CNCCOc1ccccc1OCc1ccccc1 (stereo not drawn) | inactive
2 | c1ccc(-c2n[nH]c(-c3ccccn3)n2)cc1 | inconclusive: 31.6 µM [falling, single point]
3 | Cc1ccc(NC(=O)c2cccs2)cc1 | inconclusive: 14.1 µM [falling, partial curve]
4 | COc1ccc2nc(Nc3ccccc3)sc2c1 | inconclusive: 39.8 µM [falling, single point]
5 | COc1cc(/C=N/Nc2ccccn2)cc(OC)c1O | inconclusive: 35.5 µM [falling, single point]
6 | COc1ccc(/C=N/OC(=O)Nc2ccccc2OC)cc1 | inconclusive: 39.8 µM [falling, single point]
7 | Cn1cccc1C(=O)C(=O)Nc1ccccc1 | active: 15.8 µM
8 | O=C(CSc1ccc(-c2ccc(F)cc2)nn1)N1CCCCC1 | inconclusive: 14.1 µM [falling, partial curve]
9 | O=c1c2ccccc2sn1-c1ccccc1 | inconclusive: 39.8 µM [falling, single point]
10 | Oc1cccc(/C=N/n2c(C3CCCCC3)n[nH]c2=S)c1 | inconclusive: 39.8 µM [falling, single point]
11 | O=[N+]([O-])c1cc(/C=N\Nc2nccs2)ccc1O | inconclusive: 22.4 µM [falling, partial curve]
12 | O=C1NCCN2CCCC12 (stereo not drawn) | inactive
13 | COc1ccccc1/C=C/C(=O)c1ccccc1 | inconclusive: 22.4 µM [falling, partial curve, poor fit]
14 | CCCCc1n[nH]c(=S)n1Cc1ccc(Cl)cc1 | inconclusive: 31.6 µM [falling, single point]
15 | COC(=O)c1ccc(/C=C/c2ccc3cccc(OC(C)=O)c3n2)cc1 | inconclusive: 14.1 µM [falling, partial curve]
16 | CC1CN(C(=O)CN(C)S(=O)(=O)c2ccc3ccccc3c2)CC(C)O1 (stereo not drawn) | inactive
17 | Cc1ccc([N+](=O)[O-])cc1N=C(c1ccc([N+](=O)[O-])cc1)N1CCOCC1 | inactive
18 | O=C(/C=C/Sc1ccccc1)c1ccccc1 | inconclusive: 28.2 µM [falling, single point]
19 | Cc1cccc(NC(=O)/C=C/c2ccc3c(c2)OCO3)n1 | inconclusive: 22.4 µM [falling, partial curve]
20 | CN(C)c1ccc(N/C=C/C(=O)c2ccccc2)cc1 | active: 5.62 µM
21 | O=C(Nc1cnc2ccccc2c1)c1ccco1 | inconclusive: 31.6 µM [falling, single point]

Row | SMILES | Potency
22 | Cn1c(N=Nc2ccccc2)nc2ccccc21 | active: 2.24 µM
23 | O=C(Nc1cccc2ccccc12)OCc1cncs1 | inactive
24 | CCCN1C=CC(=C2C(=O)c3ccccc3C2=O)C=C1 | active: 14.1 µM
25 | Clc1ccc(-c2nc(-c3cnccn3)no2)cc1 | active: 7.94 µM
26 | O=c1c2ccccc2nnn1CSc1ccccc1 | inconclusive: 25.1 µM [falling, partial curve]
27 | CCc1ccc2oc(-c3cc(N)ccc3O)nc2c1 | inconclusive: 25.1 µM [falling, single point]
28 | S=c1[nH]nc(-c2ccc(Cl)cc2)n1-c1cccnc1 | active: 11.2 µM
29 | Cc1ccc(C(=O)N/N=C/c2ccc3c(c2)OCO3)o1 | inconclusive: 22.4 µM [falling, partial curve]
30 | CCOc1ccc(-c2nc(-c3cccnc3)no2)cc1 | inconclusive: 15.8 µM [falling, partial curve]
31 | O=[N+]([O-])c1ccc(F)cc1OCc1nc(-c2cccs2)no1 | inactive
32 | CN1CCSc2ccc(C(=O)Nc3cccc(F)c3)cc21 | inconclusive: 39.8 µM [falling, single point]
33 | S=c1[nH]nc(C2CCCCC2)n1Cc1ccccc1 | inconclusive: 12.6 µM [falling, partial curve]
34 | Cc1ccccc1C(=O)Nc1ccc2c(c1)OCO2 | inconclusive: 25.1 µM [falling, partial curve]
35 | CC(C)CCCN1CCN=C1N(C)C | inactive
36 | CCOc1ccc(/C=C\C(C)=N\O)cc1 | inconclusive: 14.1 µM [falling, partial curve]
37 | O=C(/C=C/c1ccc2c(c1)OCO2)c1ccc[nH]1 | inconclusive: 25.1 µM [falling, single point]
38 | CCOC(=O)C(=O)Nc1cc(C)on1 | active: 15.8 µM
39 | CCOc1ccc(Nc2cc(C)nc(-n3nc(C)cc3C)n2)cc1 | inactive
40 | Oc1c(N=Nc2ccccn2)ccc2ccccc12 | active: 12.6 µM
41 | COc1cc(-c2n[nH]c(=S)n2C(C)c2ccccc2)cc(OC)c1OC (stereo not drawn) | inconclusive: 39.8 µM [falling, single point]
42 | Oc1cccc2ccc(/C=C/c3c(F)cccc3Cl)nc12 | inconclusive: 20 µM [falling, partial curve]

Row | SMILES | Potency
43 | CCCCC(=Nc1ccc(N)cc1)C1=C(O)C(C(=O)OC)C(C)(C)CC1=O (stereo not drawn) | inactive
44 | CC(C)Cc1nnc(NC(=O)C2CCCC2)s1 | inactive
45 | C=CCN1C(=O)/C(=c2\sc3nc(=O)c(Cc4ccccc4Cl)nn3c2=O)c2ccccc21 | inconclusive: 39.8 µM [falling, single point]
46 | S=c1[nH]nc(-c2ccc(Cl)cc2Cl)n1-c1ccc(Cl)cc1 | inconclusive: 35.5 µM [falling, single point]
47 | CC(=O)n1c(C=Nc2ccc(Cl)cc2)c(O)c2ccccc21 | inactive
48 | COc1ccc2oc(C(=O)OCC(=O)c3ccc4c(c3)OCCO4)c(C)c2c1 | inactive
49 | Cc1cccc(NC(=O)c2ccc3c(c2)OCCO3)n1 | inconclusive: 28.2 µM [falling, partial curve]
50 | O=C(NCc1ccco1)c1sc(=S)n2c1[nH]c(=O)c1ccccc12 | inconclusive: 35.5 µM [falling, single point]
51 | COC(=O)CSC1=NS(=O)(=O)c2ccccc21 | active: 5.01 µM
52 | O=C(Nc1ncc([N+](=O)[O-])s1)c1ccc2c(c1)OCO2 | inconclusive: 31.6 µM [falling, partial curve]
53 | COc1ccc(-c2n[nH]c(=S)n2-c2ccc(C)cc2)cc1 | active: 2 µM
54 | Fc1ccc(OCc2nc3ccccc3s2)cc1 | inconclusive: 14.1 µM [falling, partial curve]
55 | COc1cccc(-c2ncc3ccccn23)c1 | inconclusive: 28.2 µM [falling, single point]
56 | O=C(CSc1ccc(-c2nc3ccccc3[nH]2)cn1)Nc1ccc2c(c1)OCCO2 | inactive
57 | O=C(/C=C/c1ccc2c(c1)OCO2)c1ccco1 | inconclusive: 20 µM [falling, partial curve]
58 | O=C(Nc1cccc(Br)c1)c1cc2ccccc2o1 | inconclusive: 31.6 µM [falling, single point]
59 | COC(=O)c1ccc2c(c1)C(C)(C)C(/C=C/c1ccccc1O)=[N+]2C | active: 14.1 µM
60 | CCc1cc(-c2n[nH]c(=S)n2-c2ccccc2C)cs1 | active: 28.2 µM
61 | COC1=C/C(=C/c2c(O)c(C#N)c3ccccn23)C=CC1=O | inconclusive: 15.8 µM [falling, partial curve]
62 | CN(c1cccc(NC(=O)CCSc2ccccc2)c1)S(C)(=O)=O | inactive
63 | Cc1ccc(NC(=O)CN2CCOCC2)cc1 | inactive

Row | SMILES | Potency
64 | O=C(Nc1nc2ccc(S(=O)(=O)N3CCCC3)cc2s1)c1cccs1 | inconclusive: 31.6 µM [falling, single point]
65 | CCN1C(=O)[C@@H]2Cc3c([nH]c4ccccc34)C(c3ccc(OC)cc3)N2C1=S (stereo partly drawn) | inactive
66 | Cc1cc(C)c2c(=O)n(CC(=O)Nc3cccc(Cl)c3C)sc2n1 | inconclusive: 12.6 µM [falling, partial curve]
67 | O=C(CSc1ncn(-c2ccccc2)n1)c1cccs1 | inactive
68 | COc1ccc(C(=O)NC(=S)Nc2cccc(NC(=O)c3ccco3)c2)cc1[N+](=O)[O-] | inactive
69 | Cc1ccc(C(=O)/C=C/Nc2cccc(O)c2)cc1 | inconclusive: 25.1 µM [falling, partial curve]
70 | Cc1nc(NC(=O)c2ccco2)sc1C(=O)O | active: 25.1 µM
71 | COc1ccc2nc(NC(=O)c3ccco3)sc2c1 | inconclusive: 35.5 µM [falling, partial curve, poor fit]
72 | N#Cc1c(Cl)c(Cl)c2nnc(-c3ccc(Br)cc3)n2c1Cl | inconclusive: 20 µM [falling, single point]
73 | Cc1ccccc1Nc1nc(N)nc(CSc2nnnn2C)n1 | inactive
74 | COc1ccc(C(=O)NNC(=O)c2ccccn2)cc1 | active: 1.26 µM
75 | O/C(=C\c1nc2ccccc2nc1/C=C(\O)c1ccccc1)c1ccccc1 | inconclusive: 35.5 µM [falling, single point]
76 | COc1ccc(C)cc1NC(=O)NNC(=O)C(C)Oc1ccc([N+](=O)[O-])cc1 (stereo not drawn) | inactive
77 | Cc1ccc(C2=NNC(C(O)C(O)C(O)C(O)CO)S2)cc1 (stereo not drawn) | inactive
78 | COc1cc(-c2nc3ccccc3s2)ccc1O | inconclusive: 28.2 µM [falling, single point]
79 | COc1cccc(C(=O)O/N=C(\C)c2cnccn2)c1 | inconclusive: 25.1 µM [falling, single point]
80 | S=c1[nH]nc(-c2ccc(Cl)cc2Cl)n1Cc1ccccc1 | inconclusive: 25.1 µM [falling, single point]
81 | O=C(/C=C/c1ccc(O)c(O)c1)c1ccccc1O | inconclusive: 11.2 µM [falling, partial curve]
82 | CC(C)(C)C(=O)Nc1cc2nn(-c3ccccc3)nc2cc1Cl | inconclusive: 31.6 µM [falling, single point]
83 | Cc1cccc(-n2c(-c3ccncc3)n[nH]c2=S)c1C | inconclusive: 35.5 µM [falling, single point]
